Drawing on the supplement of paper PMC4604168 (melanoma cell lines), this text covers cell count for 26 compounds.

The other results are listed elsewhere or left out. Repeats are few or missing, and single values can be far off.
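Note: cells treated in 1,536-well plates, then fixed and DAPI-stained, with nuclei counted from automated high-throughput microscope images.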

This assay relates to WM115. Description: cell count relative to DMSO control; melanoma cells; higher = more viable cells. The settings on record: library dose: standard library concentration; 72 h.
As for `COc1cc([C@@H]2c3cc4c(cc3[C@@H](O[C@@H]3O[C@@H]5CO[C@@H](C)O[C@H]5[C@H](O)[C@H]3O)[C@H]3COC(=O)[C@H]23)OCO4)cc(OC)c1O` [etoposide] + C=CCn1c(=O)c2cnc(Nc3ccc(N4CCN(C)CC4)cc3)nc2n1-c1cccc(C(C)(C)O)n1 [MK1775] (first compound 0.1 µM, partner dose 0.1 µM), the cell count amounted to 54.5%.
The value for `C[C@]1(O)C[C@@H](c2nc(-c3ccc4ccc(-c5ccccc5)nc4c3)c3c(N)nccn32)C1` + Cc1cc(N2CCOCC2)cc2[nH]c(-c3c(NC[C@@H](O)c4cccc(Cl)c4)cc[nH]c3=O)nc12 [BMS536924] (first compound 2 µM, partner dose 1 µM) was 99.2%; that for `Cn1cnc2c(F)c(Nc3ccc(Br)cc3Cl)c(C(=O)NOCCO)cc21` [selumetinib] + O=C(CCCCCCC(=O)Nc1ccccc1)NO [vorinostat] (first compound 0.075 µM, partner dose 0.4 µM) was 60.1%; that for `Cn1cnc2c(F)c(Nc3ccc(Br)cc3Cl)c(C(=O)NOCCO)cc21` [selumetinib] + CC(C)(C)c1cnc(CSc2cnc(NC(=O)C3CCNCC3)s2)o1 [SNS-032] (first compound 0.075 µM, partner dose 0.05 µM) was 47.8%.
The value for `COc1cc([C@@H]2c3cc4c(cc3[C@@H](O[C@@H]3O[C@@H]5CO[C@@H](C)O[C@H]5[C@H](O)[C@H]3O)[C@H]3COC(=O)[C@H]23)OCO4)cc(OC)c1O` [etoposide] + Cc1ccc(NC(=O)c2cccc(N(C)C)c2)cc1NC(=O)c1ccc(O)cc1 [ZM336372] (first compound 0.1 µM, partner dose 10 µM) was 87.3%; that for `Cn1cnc2c(F)c(Nc3ccc(Br)cc3Cl)c(C(=O)NOCCO)cc21` [selumetinib] + COc1cc2c(Oc3ccc4[nH]c(C)cc4c3F)ncnc2cc1OCCCN1CCCC1 [cediranib] (first compound 0.075 µM, partner dose 2 µM) was 71.1%.
The value for `COc1cc([C@@H]2c3cc4c(cc3[C@@H](O[C@@H]3O[C@@H]5CO[C@@H](C)O[C@H]5[C@H](O)[C@H]3O)[C@H]3COC(=O)[C@H]23)OCO4)cc(OC)c1O` [etoposide] + CN(C)S(=O)(=O)c1ccc2c(c1)/C(=C/c1cc3c([nH]1)CCCC3)C(=O)N2 [SU6656] (first compound 0.1 µM, partner dose 2 µM) was 55%; that for `COc1cc([C@@H]2c3cc4c(cc3[C@@H](O[C@@H]3O[C@@H]5CO[C@@H](C)O[C@H]5[C@H](O)[C@H]3O)[C@H]3COC(=O)[C@H]23)OCO4)cc(OC)c1O` [etoposide] + CCCS(=O)(=O)Nc1ccc(F)c(C(=O)c2c[nH]c3ncc(Cl)cc23)c1F [PLX4720] (first compound 0.1 µM, partner dose 0.4 µM) was 67.5%.
`Cn1cnc2c(F)c(Nc3ccc(Br)cc3Cl)c(C(=O)NOCCO)cc21` [selumetinib] + CN(NC(=O)CC(=O)NN(C)C(=S)c1ccccc1)C(=S)c1ccccc1 [STA4783] (first compound 0.075 µM, partner dose 0.03 µM) showed a cell count of 23.5%.
The value for `CCN(CC)CCNC(=O)c1c(C)[nH]c(/C=C2\C(=O)Nc3ccc(F)cc32)c1C` [sunitinib] + O=C(CCCCCCC(=O)Nc1ccccc1)NO [vorinostat] (first compound 2 µM, partner dose 0.4 µM) was 59.4%; that for `COc1cc([C@@H]2c3cc4c(cc3[C@@H](O[C@@H]3O[C@@H]5CO[C@@H](C)O[C@H]5[C@H](O)[C@H]3O)[C@H]3COC(=O)[C@H]23)OCO4)cc(OC)c1O` [etoposide] + C[C@@H]1CCN(C(=O)CC#N)C[C@@H]1N(C)c1ncnc2[nH]ccc12 [CP690550] (first compound 0.1 µM, partner dose 5 µM) was 76.1%.
Consider `CCN(CC)CCNC(=O)c1c(C)[nH]c(/C=C2\C(=O)Nc3ccc(F)cc32)c1C` [sunitinib] + COc1cc(Nc2ncc(F)c(Nc3ccc4c(n3)NC(=O)C(C)(C)O4)n2)cc(OC)c1OC [Tamatinib] (first compound 2 µM, partner dose 2 µM), for which the cell count came to 62.7%.
The result for `COc1cc([C@@H]2c3cc4c(cc3[C@@H](O[C@@H]3O[C@@H]5CO[C@@H](C)O[C@H]5[C@H](O)[C@H]3O)[C@H]3COC(=O)[C@H]23)OCO4)cc(OC)c1O` [etoposide] + OCCn1cc(-c2cnc3nnn(Cc4ccc5ncccc5c4)c3n2)cn1 [PF04217903] (first compound 0.1 µM, partner dose 5 µM) reads 69.6%; that for `C[C@]1(O)C[C@@H](c2nc(-c3ccc4ccc(-c5ccccc5)nc4c3)c3c(N)nccn32)C1` + CN(C)S(=O)(=O)c1ccc2c(c1)/C(=C/c1cc3c([nH]1)CCCC3)C(=O)N2 [SU6656] (first compound 2 µM, partner dose 2 µM), 52.6%; that for `C[C@]1(O)C[C@@H](c2nc(-c3ccc4ccc(-c5ccccc5)nc4c3)c3c(N)nccn32)C1` + COc1cc2c(Oc3ccc4[nH]c(C)cc4c3F)ncnc2cc1OCCCN1CCCC1 [cediranib] (first compound 2 µM, partner dose 2 µM), 125%.
Regarding `CCN(CC)CCNC(=O)c1c(C)[nH]c(/C=C2\C(=O)Nc3ccc(F)cc32)c1C` [sunitinib] + CO[C@@H]1[C@H](N(C)C(=O)c2ccccc2)C[C@H]2O[C@]1(C)n1c3ccccc3c3c4c(c5c6ccccc6n2c5c31)C(=O)NC4 [Midostaurin] (first compound 2 µM, partner dose 0.4 µM), the cell count is 44.9%.
The result for `COc1cc([C@@H]2c3cc4c(cc3[C@@H](O[C@@H]3O[C@@H]5CO[C@@H](C)O[C@H]5[C@H](O)[C@H]3O)[C@H]3COC(=O)[C@H]23)OCO4)cc(OC)c1O` [etoposide] + CC(C)(C)c1cnc(CSc2cnc(NC(=O)C3CCNCC3)s2)o1 [SNS-032] (first compound 0.1 µM, partner dose 0.05 µM) reads 70%; that for `C[C@]1(O)C[C@@H](c2nc(-c3ccc4ccc(-c5ccccc5)nc4c3)c3c(N)nccn32)C1` + C=CCn1c(=O)c2cnc(Nc3ccc(N4CCN(C)CC4)cc3)nc2n1-c1cccc(C(C)(C)O)n1 [MK1775] (first compound 2 µM, partner dose 0.1 µM), 55%.
In turn, `COc1cc([C@@H]2c3cc4c(cc3[C@@H](O[C@@H]3O[C@@H]5CO[C@@H](C)O[C@H]5[C@H](O)[C@H]3O)[C@H]3COC(=O)[C@H]23)OCO4)cc(OC)c1O` [etoposide] + O=C(CCCCCCC(=O)Nc1ccccc1)NO [vorinostat] (first compound 0.1 µM, partner dose 0.4 µM) returned a cell count of 65.9%.
The result for `COc1cc([C@@H]2c3cc4c(cc3[C@@H](O[C@@H]3O[C@@H]5CO[C@@H](C)O[C@H]5[C@H](O)[C@H]3O)[C@H]3COC(=O)[C@H]23)OCO4)cc(OC)c1O` [etoposide] + O=C(O)c1ccc(-c2c[nH]c3ncc(-c4ccccc4)cc23)cc1C1CCCC1 [GSK650394] (first compound 0.1 µM, partner dose 0.8 µM) reads 83.5%.
The value for `Cn1cnc2c(F)c(Nc3ccc(Br)cc3Cl)c(C(=O)NOCCO)cc21` [selumetinib] + Cc1ccc(NC(=O)c2cccc(N(C)C)c2)cc1NC(=O)c1ccc(O)cc1 [ZM336372] (first compound 0.075 µM, partner dose 10 µM) was 52.7%; that for `C[C@]1(O)C[C@@H](c2nc(-c3ccc4ccc(-c5ccccc5)nc4c3)c3c(N)nccn32)C1` + OCCn1cc(-c2cnc3nnn(Cc4ccc5ncccc5c4)c3n2)cn1 [PF04217903] (first compound 2 µM, partner dose 5 µM) was 90.9%; that for `CCN(CC)CCNC(=O)c1c(C)[nH]c(/C=C2\C(=O)Nc3ccc(F)cc32)c1C` [sunitinib] + CN(C)S(=O)(=O)c1ccc2c(c1)/C(=C/c1cc3c([nH]1)CCCC3)C(=O)N2 [SU6656] (first compound 2 µM, partner dose 2 µM) was 34.2%.
The result for `CCN(CC)CCNC(=O)c1c(C)[nH]c(/C=C2\C(=O)Nc3ccc(F)cc32)c1C` [sunitinib] + CC(C)(C)c1cnc(CSc2cnc(NC(=O)C3CCNCC3)s2)o1 [SNS-032] (first compound 2 µM, partner dose 0.05 µM) reads 34.2%; that for `Cn1cnc2c(F)c(Nc3ccc(Br)cc3Cl)c(C(=O)NOCCO)cc21` [selumetinib] + O=C(Nc1cccc(Cl)c1)Nc1ncc(CCNc2ncnc3ccsc23)s1 [SNS314] (first compound 0.075 µM, partner dose 0.004 µM), 57.2%.
Compound `COc1cc([C@@H]2c3cc4c(cc3[C@@H](O[C@@H]3O[C@@H]5CO[C@@H](C)O[C@H]5[C@H](O)[C@H]3O)[C@H]3COC(=O)[C@H]23)OCO4)cc(OC)c1O` [etoposide] + CC1(C)NC(=O)N(c2ccc([N+](=O)[O-])c(C(F)(F)F)c2)C1=O [nilutamide] (first compound 0.1 µM, partner dose 5 µM) came in with a cell count of 60.5%.
